# Results: the supplement of paper PMC12217912
# This is one part of the list. The full chains were built here from the parent and the listed change. Values near 0.05 are background.
# B1: TEV protease; numbered along this chain (parent)
# chain: MGESLFKGPRDYNPISSSICHLTNESDGHTTSLYGIGFGPFIITNKHLFRRNNGTLVVQSLHGVFKVKDTTTLQQHLVDGRDMIIIRMPKDFPPFPQKLKFREPQREERICLVTTNFQTKSMSSMVSDTSCTFPSGDGIFWKHWIQTKDGQCGSPLVSTRDGFIVGIHSASNFTNTNNYFTSVPKNFMELLTNQEAQQWVSGWRLNADSVLWGGHKVFMVKPEEPFQPVKEATQL
# Variants of: B1
# Assay: raw area under fraction-flipped curve 0-4 h after induction (AUC4h, not background-subtracted), DNA-recorder readout of cleavage of the substrate (dimensionless); higher = more cleavage of the substrate by the protease variant
# Settings: temperature: 34 °C; time window: 0-4 h after rhamnose induction
# Experimental: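 In vivo DNA recorder in E. coli TOP10(DE3) ΔrhaA at 34 °C. Each TEVp single-site mutant (parent TEVp 0) is paired with a single-site variant of the 7-mer TEVs (canonical ENLYFQ|S). The substrate sits between flexible linkers in a Bxb1-sfGFP-TEVs-SsrA fusion, so cleavage stabilises Bxb1 and speeds flipping of a recombination array, read by NGS. The value is the raw area under the fraction-flipped curve over 0-4 h after rhamnose induction (AUC4h), with ≥20 reads per time point. It is not background-subtracted; inactive controls average about 0.047.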
# 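Also: Bxb1 expression induced with 0.2% (w/v) L-rhamnose at OD600 near 0.5, cultures sampled hourly, flipped fraction per protease–substrate barcode pair counted by paired-end Illumina sequencing.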
Variant,area with substrate EALYFQS,area with substrate ECLYFQS,area with substrate EDLYFQS,area with substrate EELYFQS,area with substrate EFLYFQS,area with substrate EGLYFQS,area with substrate EHLYFQS,area with substrate EILYFQS,area with substrate EKLYFQS,area with substrate ELLYFQS,area with substrate EMLYFQS,area with substrate EPLYFQS,area with substrate EQLYFQS,area with substrate ERLYFQS,area with substrate ESLYFQS,area with substrate ETLYFQS,area with substrate EVLYFQS,area with substrate EWLYFQS,area with substrate EYLYFQS
MGESLFKGPRDYNPISSSICSLTNESDGHTTSLYGIGFGPFIITNKHLFRRNNGTLVVQSLHGVFKVKDTTTLQQHLVDGRDMIIIRMPKDFPPFPQKLKFREPQREERICLVTTNFQTKSMSSMVSDTSCTFPSGDGIFWKHWIQTKDGQCGSPLVSTRDGFIVGIHSASNFTNTNNYFTSVPKNFMELLTNQEAQQWVSGWRLNADSVLWGGHKVFMVKPEEPFQPVKEATQL [H21S],0.11,0.0849,0.125,0.111,0.0758,0.0686,0.102,0.0922,0.0795,0.0751,0.0944,0.122,0.0905,0.091,0.113,0.116,0.09,0.0894,0.146
MGESLFKGPRDYNPISSSICHATNESDGHTTSLYGIGFGPFIITNKHLFRRNNGTLVVQSLHGVFKVKDTTTLQQHLVDGRDMIIIRMPKDFPPFPQKLKFREPQREERICLVTTNFQTKSMSSMVSDTSCTFPSGDGIFWKHWIQTKDGQCGSPLVSTRDGFIVGIHSASNFTNTNNYFTSVPKNFMELLTNQEAQQWVSGWRLNADSVLWGGHKVFMVKPEEPFQPVKEATQL [L22A],0.0664,0.0638,0.0763,0.0722,0.0664,0.0563,0.0684,0.0589,0.0685,0.0542,0.0725,0.0883,0.0797,0.0652,0.0778,0.067,0.0632,0.0655,0.071
MGESLFKGPRDYNPISSSICHLMNESDGHTTSLYGIGFGPFIITNKHLFRRNNGTLVVQSLHGVFKVKDTTTLQQHLVDGRDMIIIRMPKDFPPFPQKLKFREPQREERICLVTTNFQTKSMSSMVSDTSCTFPSGDGIFWKHWIQTKDGQCGSPLVSTRDGFIVGIHSASNFTNTNNYFTSVPKNFMELLTNQEAQQWVSGWRLNADSVLWGGHKVFMVKPEEPFQPVKEATQL [T23M],0.103,0.0931,0.13,0.115,0.0992,0.0886,0.113,0.0722,0.0968,0.0671,0.141,0.096,0.104,0.1,0.101,–,0.0632,0.0841,0.124
MGESLFKGPRDYNPISSSICHLQNESDGHTTSLYGIGFGPFIITNKHLFRRNNGTLVVQSLHGVFKVKDTTTLQQHLVDGRDMIIIRMPKDFPPFPQKLKFREPQREERICLVTTNFQTKSMSSMVSDTSCTFPSGDGIFWKHWIQTKDGQCGSPLVSTRDGFIVGIHSASNFTNTNNYFTSVPKNFMELLTNQEAQQWVSGWRLNADSVLWGGHKVFMVKPEEPFQPVKEATQL [T23Q],0.11,0.103,0.102,0.157,0.118,0.0933,–,0.0716,0.107,0.0929,0.119,0.115,–,0.12,0.093,0.0955,0.113,–,0.0915
MGESLFKGPRDYNPISSSICHLTKESDGHTTSLYGIGFGPFIITNKHLFRRNNGTLVVQSLHGVFKVKDTTTLQQHLVDGRDMIIIRMPKDFPPFPQKLKFREPQREERICLVTTNFQTKSMSSMVSDTSCTFPSGDGIFWKHWIQTKDGQCGSPLVSTRDGFIVGIHSASNFTNTNNYFTSVPKNFMELLTNQEAQQWVSGWRLNADSVLWGGHKVFMVKPEEPFQPVKEATQL [N24K],0.121,0.0707,0.0975,0.115,0.0557,0.0669,0.0999,0.0941,0.0838,0.0718,0.0826,0.0981,0.0891,0.0744,0.0871,0.108,0.067,0.0633,0.11
MGESLFKGPRDYNPISSSICHLTNASDGHTTSLYGIGFGPFIITNKHLFRRNNGTLVVQSLHGVFKVKDTTTLQQHLVDGRDMIIIRMPKDFPPFPQKLKFREPQREERICLVTTNFQTKSMSSMVSDTSCTFPSGDGIFWKHWIQTKDGQCGSPLVSTRDGFIVGIHSASNFTNTNNYFTSVPKNFMELLTNQEAQQWVSGWRLNADSVLWGGHKVFMVKPEEPFQPVKEATQL [E25A],0.104,0.127,0.123,0.142,0.0905,0.141,0.116,–,0.0775,0.0965,0.111,–,0.128,0.079,0.113,0.0993,0.111,0.0802,–
MGESLFKGPRDYNPISSSICHLTNEVDGHTTSLYGIGFGPFIITNKHLFRRNNGTLVVQSLHGVFKVKDTTTLQQHLVDGRDMIIIRMPKDFPPFPQKLKFREPQREERICLVTTNFQTKSMSSMVSDTSCTFPSGDGIFWKHWIQTKDGQCGSPLVSTRDGFIVGIHSASNFTNTNNYFTSVPKNFMELLTNQEAQQWVSGWRLNADSVLWGGHKVFMVKPEEPFQPVKEATQL [S26V],0.0742,0.0539,0.097,0.088,–,0.0723,–,0.0986,0.064,–,0.0867,–,0.0851,0.08,0.0932,0.141,0.0541,–,–
MGESLFKGPRDYNPISSSICHLTNESVGHTTSLYGIGFGPFIITNKHLFRRNNGTLVVQSLHGVFKVKDTTTLQQHLVDGRDMIIIRMPKDFPPFPQKLKFREPQREERICLVTTNFQTKSMSSMVSDTSCTFPSGDGIFWKHWIQTKDGQCGSPLVSTRDGFIVGIHSASNFTNTNNYFTSVPKNFMELLTNQEAQQWVSGWRLNADSVLWGGHKVFMVKPEEPFQPVKEATQL [D27V],0.092,0.0815,0.106,–,0.0796,0.0853,–,0.0709,0.101,0.095,0.126,0.0878,0.0908,0.0906,0.0791,0.111,0.0865,0.0855,–
MGESLFKGPRDYNPISSSICHLTNESDHHTTSLYGIGFGPFIITNKHLFRRNNGTLVVQSLHGVFKVKDTTTLQQHLVDGRDMIIIRMPKDFPPFPQKLKFREPQREERICLVTTNFQTKSMSSMVSDTSCTFPSGDGIFWKHWIQTKDGQCGSPLVSTRDGFIVGIHSASNFTNTNNYFTSVPKNFMELLTNQEAQQWVSGWRLNADSVLWGGHKVFMVKPEEPFQPVKEATQL [G28H],0.121,0.0912,0.114,0.108,–,–,0.1,0.102,0.106,0.0681,0.113,0.111,–,0.0921,0.0886,0.0982,0.0853,0.0891,0.0958
MGESLFKGPRDYNPISSSICHLTNESDMHTTSLYGIGFGPFIITNKHLFRRNNGTLVVQSLHGVFKVKDTTTLQQHLVDGRDMIIIRMPKDFPPFPQKLKFREPQREERICLVTTNFQTKSMSSMVSDTSCTFPSGDGIFWKHWIQTKDGQCGSPLVSTRDGFIVGIHSASNFTNTNNYFTSVPKNFMELLTNQEAQQWVSGWRLNADSVLWGGHKVFMVKPEEPFQPVKEATQL [G28M],0.114,0.0911,0.139,–,–,0.0965,0.0969,0.0454,–,–,–,–,–,0.103,0.0862,–,0.0927,0.086,–
MGESLFKGPRDYNPISSSICHLTNESDSHTTSLYGIGFGPFIITNKHLFRRNNGTLVVQSLHGVFKVKDTTTLQQHLVDGRDMIIIRMPKDFPPFPQKLKFREPQREERICLVTTNFQTKSMSSMVSDTSCTFPSGDGIFWKHWIQTKDGQCGSPLVSTRDGFIVGIHSASNFTNTNNYFTSVPKNFMELLTNQEAQQWVSGWRLNADSVLWGGHKVFMVKPEEPFQPVKEATQL [G28S],0.082,0.0918,0.0924,–,–,–,0.087,0.0842,0.0976,0.0705,0.106,–,0.13,0.0956,0.082,–,0.0823,0.0405,0.0839
MGESLFKGPRDYNPISSSICHLTNESDGQTTSLYGIGFGPFIITNKHLFRRNNGTLVVQSLHGVFKVKDTTTLQQHLVDGRDMIIIRMPKDFPPFPQKLKFREPQREERICLVTTNFQTKSMSSMVSDTSCTFPSGDGIFWKHWIQTKDGQCGSPLVSTRDGFIVGIHSASNFTNTNNYFTSVPKNFMELLTNQEAQQWVSGWRLNADSVLWGGHKVFMVKPEEPFQPVKEATQL [H29Q],0.0999,0.115,–,0.0899,0.0805,–,0.0917,0.101,–,0.0895,–,0.103,0.13,–,0.117,0.118,0.112,–,–
MGESLFKGPRDYNPISSSICHLTNESDGWTTSLYGIGFGPFIITNKHLFRRNNGTLVVQSLHGVFKVKDTTTLQQHLVDGRDMIIIRMPKDFPPFPQKLKFREPQREERICLVTTNFQTKSMSSMVSDTSCTFPSGDGIFWKHWIQTKDGQCGSPLVSTRDGFIVGIHSASNFTNTNNYFTSVPKNFMELLTNQEAQQWVSGWRLNADSVLWGGHKVFMVKPEEPFQPVKEATQL [H29W],0.114,0.104,–,0.0986,0.106,0.115,0.0876,0.0978,0.144,0.0872,0.111,–,0.112,0.11,0.118,0.104,0.103,0.0979,0.124
MGESLFKGPRDYNPISSSICHLTNESDGYTTSLYGIGFGPFIITNKHLFRRNNGTLVVQSLHGVFKVKDTTTLQQHLVDGRDMIIIRMPKDFPPFPQKLKFREPQREERICLVTTNFQTKSMSSMVSDTSCTFPSGDGIFWKHWIQTKDGQCGSPLVSTRDGFIVGIHSASNFTNTNNYFTSVPKNFMELLTNQEAQQWVSGWRLNADSVLWGGHKVFMVKPEEPFQPVKEATQL [H29Y],0.136,0.113,–,0.157,–,0.104,0.115,0.0852,0.123,0.111,0.127,0.15,0.105,0.114,0.118,0.113,0.105,–,–
MGESLFKGPRDYNPISSSICHLTNESDGHTCSLYGIGFGPFIITNKHLFRRNNGTLVVQSLHGVFKVKDTTTLQQHLVDGRDMIIIRMPKDFPPFPQKLKFREPQREERICLVTTNFQTKSMSSMVSDTSCTFPSGDGIFWKHWIQTKDGQCGSPLVSTRDGFIVGIHSASNFTNTNNYFTSVPKNFMELLTNQEAQQWVSGWRLNADSVLWGGHKVFMVKPEEPFQPVKEATQL [T31C],0.129,0.168,0.158,–,–,0.117,0.119,0.1,0.124,0.106,0.122,0.116,0.161,0.107,0.122,–,0.108,0.11,0.145
MGESLFKGPRDYNPISSSICHLTNESDGHTGSLYGIGFGPFIITNKHLFRRNNGTLVVQSLHGVFKVKDTTTLQQHLVDGRDMIIIRMPKDFPPFPQKLKFREPQREERICLVTTNFQTKSMSSMVSDTSCTFPSGDGIFWKHWIQTKDGQCGSPLVSTRDGFIVGIHSASNFTNTNNYFTSVPKNFMELLTNQEAQQWVSGWRLNADSVLWGGHKVFMVKPEEPFQPVKEATQL [T31G],0.0736,0.0965,0.0762,0.0931,0.0776,0.0763,0.0831,0.0778,0.0799,0.0724,0.086,0.0808,0.0773,0.0827,0.0809,0.0915,0.0617,0.0767,–
MGESLFKGPRDYNPISSSICHLTNESDGHTRSLYGIGFGPFIITNKHLFRRNNGTLVVQSLHGVFKVKDTTTLQQHLVDGRDMIIIRMPKDFPPFPQKLKFREPQREERICLVTTNFQTKSMSSMVSDTSCTFPSGDGIFWKHWIQTKDGQCGSPLVSTRDGFIVGIHSASNFTNTNNYFTSVPKNFMELLTNQEAQQWVSGWRLNADSVLWGGHKVFMVKPEEPFQPVKEATQL [T31R],0.0788,0.0649,–,0.0782,0.0661,–,0.0822,0.0662,–,0.0558,–,0.0809,0.0626,0.0573,0.0667,0.0698,–,–,0.0854
